# Results taken from article PMC4335062, “Data-Driven Prediction and Design of bZIP Coiled-Coil Interactions” (PLoS Computational Biology, 2015).
# The source holds more than one record for some entries. This is not the full list of results. An entry can have further records. For some of these results: Results that share an entry seem to repeat one measurement (runs, samples, wells or individuals). For some of these results: Results that share an entry read as repeated measurements on other runs, samples or individuals; one of them may be the mean. Entries with a single value are a further part of the results. Where no end group is shown, it is not given here.
# B1: XBP1-d1 labeled at the C-terminus (designed binder)
# chain: GESKEYKKGSGSEREAQLENRVAHLKEKNQELKAQNLHLKEALSEAQNRNQELKNDAGC
# modifications: also: Cys59: Rhodamine Red C2-maleimide or fluorescein-5-maleimide, by assay
# B2: ATF5-d1 labeled at the C-terminus (designed binder)
# chain: GESKEYKKGSGSKRIAYLRQRIAELRNENHVLESRIQRMEKEKDALQQDRDHLEYELGC(Rhodamine Red C2‑maleimide)
# modifications: not fully specified
# B3: JUN-d1 labeled at the C-terminus (designed binder)
# chain: GESKEYKKGSGSSIAATLEKEEANLEKMNKKLAAEIESLLKEKDKLESVLNYHEGC
# modifications: also: Cys56: Rhodamine Red C2-maleimide or fluorescein-5-maleimide, by assay
# B4: JUN-d1 labeled at the N-terminus (designed binder)
# chain: GESKEYKKGSGSC(Rhodamine Red C2‑maleimide)GSIAATLEKEEANLEKMNKKLAAEIESLLKEKDKLESVLNYHE
# B5: ATF4-d1 labeled at the N-terminus (designed binder)
# chain: GESKEYKKGSGSC(Rhodamine Red C2‑maleimide)GNQIKTLRTRLSKLRKDNLQLEKDIANLERKAKDLRAEKEQLEYEL
# Assays:
# [1] = molecular target: X-box binding protein 1 (human) (UniProt P17861); assay: FRET or BRET; direct-binding FRET in 384-well plates; rhodamine-labelled design (acceptor) titrated 0 to 1 uM into 10 nM fluorescein-labelled bZIP (donor); 150 mM KCl, 50 mM potassium phosphate pH 7.4, 0.1% Tween-20, 0.1% BSA; 4 °C
# Chain of UniProt P17861 (P17861 whole entry): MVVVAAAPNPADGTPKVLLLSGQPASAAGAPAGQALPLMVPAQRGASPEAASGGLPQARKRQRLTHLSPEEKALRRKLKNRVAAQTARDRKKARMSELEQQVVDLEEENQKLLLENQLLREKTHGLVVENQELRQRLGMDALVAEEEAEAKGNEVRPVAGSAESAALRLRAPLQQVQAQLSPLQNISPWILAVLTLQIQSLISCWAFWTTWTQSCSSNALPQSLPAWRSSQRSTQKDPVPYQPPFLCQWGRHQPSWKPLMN
# [2] = molecular target: X-box binding protein 1 (human) (UniProt P17861); assay: FRET or BRET; direct-binding FRET in 384-well plates; rhodamine-labelled design (acceptor) titrated 0 to 1 uM into 10 nM fluorescein-labelled bZIP (donor); 150 mM KCl, 50 mM potassium phosphate pH 7.4, 0.1% Tween-20, 0.1% BSA; 37 °C
# [3] = molecular target: ATF6B (Homo sapiens, UniProt Q99941); assay: FRET or BRET; direct-binding FRET in 384-well plates; rhodamine-labelled design (acceptor) titrated 0 to 1 uM into 10 nM fluorescein-labelled bZIP (donor); 150 mM KCl, 50 mM potassium phosphate pH 7.4, 0.1% Tween-20, 0.1% BSA; 4 °C
# Chain of UniProt Q99941 (Q99941 whole entry): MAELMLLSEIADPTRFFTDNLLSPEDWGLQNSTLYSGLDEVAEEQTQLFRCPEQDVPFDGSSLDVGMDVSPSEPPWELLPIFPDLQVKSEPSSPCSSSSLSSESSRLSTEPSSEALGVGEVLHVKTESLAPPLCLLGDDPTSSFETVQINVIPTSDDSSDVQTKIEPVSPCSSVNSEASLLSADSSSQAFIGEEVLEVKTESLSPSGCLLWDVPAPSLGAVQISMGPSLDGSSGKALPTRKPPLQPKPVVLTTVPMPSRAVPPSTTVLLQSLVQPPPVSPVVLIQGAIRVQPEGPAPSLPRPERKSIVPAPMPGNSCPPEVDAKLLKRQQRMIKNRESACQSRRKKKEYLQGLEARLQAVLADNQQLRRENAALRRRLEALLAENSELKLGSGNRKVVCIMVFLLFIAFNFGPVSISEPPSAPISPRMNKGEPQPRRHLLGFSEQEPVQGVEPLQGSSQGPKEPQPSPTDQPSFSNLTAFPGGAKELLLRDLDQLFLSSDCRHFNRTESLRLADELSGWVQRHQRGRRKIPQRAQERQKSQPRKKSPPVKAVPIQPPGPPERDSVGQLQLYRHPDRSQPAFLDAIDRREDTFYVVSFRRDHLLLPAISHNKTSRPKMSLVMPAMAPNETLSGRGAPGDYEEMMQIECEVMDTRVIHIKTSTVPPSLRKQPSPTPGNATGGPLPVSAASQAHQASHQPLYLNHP
# [4] = molecular target: ATF5 (human) (UniProt Q9Y2D1); assay: FRET or BRET; direct-binding FRET in 384-well plates; rhodamine-labelled design (acceptor) titrated 0 to 1 uM into 10 nM fluorescein-labelled bZIP (donor); 150 mM KCl, 50 mM potassium phosphate pH 7.4, 0.1% Tween-20, 0.1% BSA; 23 °C
# Chain of UniProt Q9Y2D1 (Q9Y2D1 whole entry): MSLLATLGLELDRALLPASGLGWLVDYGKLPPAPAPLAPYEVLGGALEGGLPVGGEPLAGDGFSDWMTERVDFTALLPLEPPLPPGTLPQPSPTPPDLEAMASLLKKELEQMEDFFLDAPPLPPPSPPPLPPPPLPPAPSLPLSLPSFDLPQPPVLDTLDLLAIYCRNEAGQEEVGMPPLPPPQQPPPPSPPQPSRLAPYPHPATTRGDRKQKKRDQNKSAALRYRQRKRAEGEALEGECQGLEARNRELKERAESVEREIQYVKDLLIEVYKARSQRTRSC
# [5] = molecular target: ATF5 (human) (UniProt Q9Y2D1); assay: FRET or BRET; direct-binding FRET in 384-well plates; rhodamine-labelled design (acceptor) titrated 0 to 1 uM into 10 nM fluorescein-labelled bZIP (donor); 150 mM KCl, 50 mM potassium phosphate pH 7.4, 0.1% Tween-20, 0.1% BSA; 37 °C
# [6] = molecular target: ATF4 (human) (UniProt P18848); assay: FRET or BRET; direct-binding FRET in 384-well plates; rhodamine-labelled design (acceptor) titrated 0 to 1 uM into 10 nM fluorescein-labelled bZIP (donor); 150 mM KCl, 50 mM potassium phosphate pH 7.4, 0.1% Tween-20, 0.1% BSA; 4 °C
# Chain of UniProt P18848 (P18848 whole entry): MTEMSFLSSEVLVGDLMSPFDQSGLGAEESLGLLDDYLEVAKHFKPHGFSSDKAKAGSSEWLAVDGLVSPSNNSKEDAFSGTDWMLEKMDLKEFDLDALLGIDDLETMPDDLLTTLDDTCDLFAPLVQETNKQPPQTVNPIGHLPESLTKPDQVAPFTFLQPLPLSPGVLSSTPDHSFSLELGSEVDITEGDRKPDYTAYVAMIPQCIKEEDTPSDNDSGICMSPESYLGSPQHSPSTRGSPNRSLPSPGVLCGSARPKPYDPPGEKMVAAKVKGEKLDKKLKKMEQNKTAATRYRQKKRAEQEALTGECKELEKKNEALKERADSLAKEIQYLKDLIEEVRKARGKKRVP
# [7] = molecular target: ATF2 (human) (UniProt P15336); assay: as above
# Chain of UniProt P15336 (P15336 whole entry): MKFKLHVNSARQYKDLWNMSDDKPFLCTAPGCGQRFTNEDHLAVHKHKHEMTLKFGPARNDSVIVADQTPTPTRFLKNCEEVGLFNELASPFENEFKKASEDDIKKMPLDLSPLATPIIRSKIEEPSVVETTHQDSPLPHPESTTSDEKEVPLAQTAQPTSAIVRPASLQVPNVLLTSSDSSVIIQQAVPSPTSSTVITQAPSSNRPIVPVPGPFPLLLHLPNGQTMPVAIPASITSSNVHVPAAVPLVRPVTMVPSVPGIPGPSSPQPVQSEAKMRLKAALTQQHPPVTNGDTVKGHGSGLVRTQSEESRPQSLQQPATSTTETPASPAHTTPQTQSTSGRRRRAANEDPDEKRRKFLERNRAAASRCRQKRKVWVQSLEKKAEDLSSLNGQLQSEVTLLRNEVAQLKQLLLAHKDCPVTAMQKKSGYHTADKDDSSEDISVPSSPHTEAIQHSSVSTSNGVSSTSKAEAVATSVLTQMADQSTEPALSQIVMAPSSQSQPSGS
# [8] = molecular target: ATF4 (human) (UniProt P18848); assay: FRET or BRET; direct-binding FRET in 384-well plates; rhodamine-labelled design (acceptor) titrated 0 to 1 uM into 10 nM fluorescein-labelled bZIP (donor); 150 mM KCl, 50 mM potassium phosphate pH 7.4, 0.1% Tween-20, 0.1% BSA; 23 °C
# [9] = molecular target: ATF2 (human) (UniProt P15336); assay: as above
# [10] = molecular target: ATF2 (human) (UniProt P15336); assay: FRET or BRET; direct-binding FRET in 384-well plates; rhodamine-labelled design (acceptor) titrated 0 to 1 uM into 10 nM fluorescein-labelled bZIP (donor); 150 mM KCl, 50 mM potassium phosphate pH 7.4, 0.1% Tween-20, 0.1% BSA; 37 °C
# [11] = molecular target: T1, JUN (Homo sapiens, UniProt P05412); assay: FRET or BRET; direct-binding FRET in 384-well plates; rhodamine-labelled design (acceptor) titrated 0 to 1 uM into 10 nM fluorescein-labelled bZIP (donor); 150 mM KCl, 50 mM potassium phosphate pH 7.4, 0.1% Tween-20, 0.1% BSA; 4 °C
# T1 sequence (P05412 whole entry): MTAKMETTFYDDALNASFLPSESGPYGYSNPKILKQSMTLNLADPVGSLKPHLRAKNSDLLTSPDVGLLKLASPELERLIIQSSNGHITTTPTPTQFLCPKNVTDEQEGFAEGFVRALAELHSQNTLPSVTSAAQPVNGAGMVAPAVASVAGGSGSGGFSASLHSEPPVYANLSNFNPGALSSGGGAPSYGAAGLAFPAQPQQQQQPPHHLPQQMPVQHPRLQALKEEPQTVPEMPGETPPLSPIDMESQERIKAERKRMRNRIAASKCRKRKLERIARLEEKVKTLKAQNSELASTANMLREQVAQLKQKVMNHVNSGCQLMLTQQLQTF
# [12] = molecular target: T1, JUN; assay: FRET or BRET; direct-binding FRET in 384-well plates; rhodamine-labelled design (acceptor) titrated 0 to 1 uM into 10 nM fluorescein-labelled bZIP (donor); 150 mM KCl, 50 mM potassium phosphate pH 7.4, 0.1% Tween-20, 0.1% BSA; 23 °C
# [13] = molecular target: T1, JUN; assay: FRET or BRET; direct-binding FRET in 384-well plates; rhodamine-labelled design (acceptor) titrated 0 to 1 uM into 10 nM fluorescein-labelled bZIP (donor); 150 mM KCl, 50 mM potassium phosphate pH 7.4, 0.1% Tween-20, 0.1% BSA; 37 °C
# [14] = molecular target: ATF4 (human) (UniProt P18848); assay: as above
# [15] = mean of four replicate measurements
binder,measurement,setting,value
B1,Kd,[1]; individual replicate measurement,"2.3, 2, 1.7, 1 nM"
same,Kd,[1]; mean of replicate measurements,1.8 nM
same,Kd,[2],"208, 227, 171, 80.2 nM"
B2,Kd,[3]; mean of replicates,433 nM
same,Kd,[3]; single replicate,"448 nM, 438 nM, 412 nM"
same,Kd,[4],"51.6, 49.2, 31.6, 9.3 nM"
same,Kd,[4]; summary value across replicates,44.1 nM
same,Kd,[5],"2.8 µM, 1.51 µM, 729 nM, 129 nM"
B3,Kd,"[6]; individual measurement, 4 °C","3.7 nM, 3.3 nM, 3.6 nM"
same,Kd,"[6]; mean value, 4 °C",3.5 nM
same,Kd,[7]; individual replicate fit,"12.1 nM, 14 nM, 9.7 nM"
same,Kd,[7]; mean of replicate fits,12 nM
same,Kd,[8]; individual replicate fit,"52.1 nM, 54.3 nM, 44.3 nM"
same,Kd,[8]; mean of replicate fits,50 nM
same,Kd,[9]; mean of replicates,108 nM
same,Kd,[9]; single replicate,"110, 104, 107, 112 nM"
same,Kd,[10],"681 nM, 760 nM, 708 nM"
B4,Kd,[11]; individual replicate,"1.5, 1.3, 2.3, 1.1 nM"
same,Kd,[11]; mean of replicates,1.6 nM
same,Kd,[12]; [15],5.2 nM
same,Kd,[12]; single replicate measurement,"4.7, 7.3, 6, 2.8 nM"
same,Kd,[13]; [15],41 nM
same,Kd,[13]; single replicate measurement,"48.1, 50.6, 35.8, 29.5 nM"
B5,Kd,[6],1 µM and 71.5 nM
same,Kd,[8]; individual replicate Kd,"490, 112, 103, 22.4 nM"
same,Kd,[8]; summary Kd across replicates,235 nM
same,Kd,[14]; individual replicate,"1 µM, 635 nM, 328 nM"
same,Kd,[14]; mean of replicates,741 nM
